# In the supplement of paper PMC10126150:
# Values marked as one replicate rest on one cluster of the flow cell; about a third of the high ones do not repeat.
# System: ATP
# Test: switch fluorescence ratio, 500 uM ATP over buffer (Cy3 cluster intensity, sum of 5 cycles each) (fold (ratio)); higher = stronger signal-on switching upon ATP binding; sequences stand for … in TCGTCGGCAGCGTCAGATGTGTATAAGAGACAGTTTTTTTTTTTTTTTTTTTTTTTTT…TC
# Conditions: aptamer strand: ATP DNA aptamer (quencher-CACCTGGGGGAGTATTGCGGAGGAAGG + anchor), 100 nM annealed; ATP concentration: 500 uM; one replicate
# Summary of the method: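 Per cluster, summed Cy3 intensity from the target cycles was divided by that from the buffer cycles to give the fluorescence ratio, then averaged per switch-domain sequence. Clusters outside 100-1000 RFU were excluded. The Cy3-labelled switching-strand clusters, on a modified Illumina MiSeq flow-cell, were annealed to 100 nM quencher-labelled ATP aptamer and imaged in selection buffer, then after 15 min with 500 uM ATP at 22 °C, for five cycles with NaOH stripping and re-annealing between them.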
# 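Further: ATP exposure 15 min at 22 °C before imaging.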
row,Sequence,switch fluorescence ratio
1,TCTTGTAGAC,1.01
2,TCTTTAATGC,1.16
3,TCTTTATGGA,0.971
4,TCTTTCAACC,1
5,TCTTTGTAGA,1.06
6,TCTTTTCTC,1.02
7,TCTTTTTAAA,1.09
8,TCTTTTTATT,0.943
9,TCTTTTTC,1.16
10,TCTTTTTCGT,1.05
11,TGAAAAATGA,1.04
12,TGAAAAGTGC,1.07
13,TGAAACCACA,1.08
14,TGAAACTCTT,0.993
15,TGAAAGGGCG,1.01
16,TGAAATACCG,1.05
17,TGAAATTCGG,0.968
18,TGAAATTCTG,1.04
19,TGAACCACAG,1.21
20,TGAACCCATC,1.02
21,TGAACCGTAT,1.01
22,TGAACGGCTC,1.03
23,TGAACTCCAT,1.01
24,TGAACTTTGA,1.07
25,TGAAGAAAGA,1.02
26,TGAAGAATAA,1.07

row,Sequence,switch fluorescence ratio
1,TGAAGAGTAC,1.01
2,TGAAGCACC,1.28
3,TGAAGGCA,1.06
4,TGAAGGGCTT,1.01
5,TGAAGTAGG,1.01
6,TGAAGTGCTG,1.01
7,TGAATAAAAC,1.03
8,TGAATCGCTG,1.02
9,TGAATCTGAC,1.17
10,TGAATTAGAG,1
11,TGAATTAGCG,0.972
12,TGAATTCGTC,0.968
13,TGACAAGGAA,1.07
14,TGACACGCGG,1.02
15,TGACAGGGCA,0.993
16,TGACAGGTT,1.01
17,TGACAGTTGT,1.03
18,TGACATACTC,1.48
19,TGACATATC,1.01
20,TGACATGGTA,1.01
21,TGACATTCCG,1.03
22,TGACCAAGCG,1.05
23,TGACCACAAC,1.14
24,TGACCACTTT,1.01
25,TGACCCGAAT,1.02
26,TGACCCTAAT,1.02

row,Sequence,switch fluorescence ratio
1,TGACCGGCAG,0.949
2,TGACCGGTTT,1.04
3,TGACCTGGGT,1.06
4,TGACGCAGGG,1.3
5,TGACGGCGGC,1.07
6,TGACGGGGT,1.03
7,TGACGGGTAA,1.04
8,TGACGTCA,1.03
9,TGACGTCAG,0.977
10,TGACGTGAGT,0.999
11,TGACGTGGGC,1.14
12,TGACGTTGCG,1.03
13,TGACTACCGG,1.02
14,TGACTACTGG,1.02
15,TGACTATAAA,0.992
16,TGACTATATA,1.03
17,TGACTATTTA,1
18,TGAGAAACAG,1.05
19,TGAGAAACGC,0.95
20,TGAGAAAGCA,0.988
21,TGAGAAAGCG,0.973
22,TGAGAAATTG,0.941
23,TGAGAACCGT,1.01
24,TGAGAAGTCT,0.974
25,TGAGACACGA,0.964
